Laboratory results reported in the BET-seq Pho4 binding data (Le et al. 2018).
Some of the results follow. The energies were worked out here from pooled read counts, against the library average; single values are noisy.

molecular target: T1, Pho4 (S. cerevisiae) (UniProt P07270); experiment: relative binding free energy (BET-seq); higher = weaker binding; conditions: reference: library average
T1 sequence: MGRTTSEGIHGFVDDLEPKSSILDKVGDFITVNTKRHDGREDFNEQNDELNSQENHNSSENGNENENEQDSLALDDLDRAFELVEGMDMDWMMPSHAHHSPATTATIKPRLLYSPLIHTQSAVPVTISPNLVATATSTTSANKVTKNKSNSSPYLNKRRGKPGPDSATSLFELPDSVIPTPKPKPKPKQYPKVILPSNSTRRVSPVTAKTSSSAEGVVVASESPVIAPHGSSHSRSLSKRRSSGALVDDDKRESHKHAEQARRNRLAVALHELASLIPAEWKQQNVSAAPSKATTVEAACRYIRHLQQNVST

| Sequence | relative binding free energy |
| --- | --- |
| ATGACCACGTGGGGTG | -0.23 kcal/mol |
| AAATGCACGTGCGGGA | -0.05 kcal/mol |
| CTTGGCACGTGTAAGA | 0.09 kcal/mol |
| TTTTGCACGTGGTTAA | -0.1 kcal/mol |
| GATGGCACGTGATGGA | 0.17 kcal/mol |
| GTCGTCACGTGTGTGT | 0.14 kcal/mol |
| GGGTCCACGTGCGGAG | 0.13 kcal/mol |
| TTTTACACGTGTTCTG | 0.15 kcal/mol |
| TTTCCCACGTGTAGGG | -0.02 kcal/mol |
| AGGCTCACGTGTTGCG | 0.27 kcal/mol |
| GGCGGCACGTGGGGCT | -0.22 kcal/mol |
| ATGTACACGTGTTAGG | 0.02 kcal/mol |
| TGGAGCACGTGGTCGC | -0.13 kcal/mol |
| AGTTCCACGTGGTATT | 0.02 kcal/mol |
| AGTAACACGTGGGGTC | -0.03 kcal/mol |
| TCTAGCACGTGGCGTG | -0.13 kcal/mol |
| CGCAGCACGTGGTTTG | -0.12 kcal/mol |
| TTGGTCACGTGTAGGG | 0.16 kcal/mol |
| TGAGACACGTGACTGT | 0.22 kcal/mol |
| CTTGTCACGTGGTTAG | -0.11 kcal/mol |
| GTGTTCACGTGGTAAC | 0.19 kcal/mol |
| GAGTTCACGTGCTGGA | 0.28 kcal/mol |
| CGGGACACGTGGGGGA | -0.11 kcal/mol |

| Sequence | relative binding free energy |
| --- | --- |
| AGTTGCACGTGGAATT | 0.05 kcal/mol |
| ATTGGCACGTGTACAG | -0.13 kcal/mol |
| AGTTGCACGTGTGGAG | 0.08 kcal/mol |
| ATAGTCACGTGCTGTT | 0.15 kcal/mol |
| CCTGTCACGTGTTTTG | 0.05 kcal/mol |
| TTGAGCACGTGGTCTG | -0.35 kcal/mol |
| ATATACACGTGTAGAT | 0.16 kcal/mol |
| GATGACACGTGTGCGG | -0.02 kcal/mol |
| TAAAACACGTGGGATG | -0.07 kcal/mol |
| GGTGCCACGTGTGTTT | -0.07 kcal/mol |
| CAAAGCACGTGTTTTT | 0.12 kcal/mol |
| GGAAGCACGTGCGTGT | -0.25 kcal/mol |
| AGTAGCACGTGAATTA | 0.21 kcal/mol |
| TGTGACACGTGTTGTC | -0.08 kcal/mol |
| AGTCGCACGTGGGGGA | -0.23 kcal/mol |
| TGCGGCACGTGATTGG | 0.02 kcal/mol |
| ATGGACACGTGTAATA | 0.17 kcal/mol |
| AGGGTCACGTGACGTC | 0.2 kcal/mol |
| CGGGGCACGTGGGTTC | -0.14 kcal/mol |
| GGGATCACGTGAGGCA | 0.35 kcal/mol |
| GTGGTCACGTGGTCCG | 0.12 kcal/mol |
| GGTGTCACGTGATTAG | 0.35 kcal/mol |
| TTTGGCACGTGAACTG | 0.06 kcal/mol |

| Sequence | relative binding free energy |
| --- | --- |
| GGGGCCACGTGTGCGG | -0.09 kcal/mol |
| GCGGCCACGTGGGGAG | -0.22 kcal/mol |
| TGGCCCACGTGGGTTT | -0.17 kcal/mol |
| TGTGACACGTGGCGGC | 0.06 kcal/mol |
| GTTACCACGTGGTTAT | 0.08 kcal/mol |
| GTTGGCACGTGCTGAT | -0.02 kcal/mol |
| TAAGGCACGTGGTAGA | -0.15 kcal/mol |
| TTAGTCACGTGTGGGC | 0.25 kcal/mol |
| TTCAGCACGTGTGTTG | -0.08 kcal/mol |
| TCGTGCACGTGTTAGT | -0.11 kcal/mol |
| AGGCTCACGTGGTTCG | 0.29 kcal/mol |
| GGGGACACGTGTGATC | 0.15 kcal/mol |
| GTGCTCACGTGGTGTG | 0.16 kcal/mol |
| AGTATCACGTGTCTGT | 0.17 kcal/mol |
| GTTGTCACGTGCTTTC | 0.15 kcal/mol |
| CGGGTCACGTGATGGA | 0.17 kcal/mol |
| TATGTCACGTGGTATT | 0.02 kcal/mol |
| GCTTGCACGTGAAGTG | 0.26 kcal/mol |
| ATTTACACGTGCTTTG | -0.07 kcal/mol |
| ACGAGCACGTGGGGGC | -0.16 kcal/mol |
| TATTTCACGTGTTTTG | 0.3 kcal/mol |
| TTCGCCACGTGAGGGT | 0.11 kcal/mol |
| GAGTTCACGTGGAGAT | 0.44 kcal/mol |

| Sequence | relative binding free energy |
| --- | --- |
| GTTTTCACGTGCGCTG | 0.39 kcal/mol |
| GTATGCACGTGACGGT | 0.09 kcal/mol |
| ATAGGCACGTGGTGCG | -0.3 kcal/mol |
| TTGGTCACGTGGTTGG | 0.08 kcal/mol |
| TTACCCACGTGGGGGG | -0.34 kcal/mol |
| CGAATCACGTGAGTGT | 0.39 kcal/mol |
| CTGAGCACGTGTGAGG | -0.01 kcal/mol |
| TAGCGCACGTGTCAGG | -0.05 kcal/mol |
| TTGTACACGTGTCTGA | 0 kcal/mol |
| TTATACACGTGAGATA | 0.27 kcal/mol |
| AGGTTCACGTGAGTAA | 0.26 kcal/mol |
| TTTATCACGTGGATGG | 0.06 kcal/mol |
| ATTATCACGTGCGTGT | 0.09 kcal/mol |
| TTTGCCACGTGAGGGG | 0.1 kcal/mol |
| GCCGTCACGTGGTATT | 0.17 kcal/mol |
| GGTCCCACGTGGGTTG | -0.19 kcal/mol |
| ATTTTCACGTGCTTTA | 0.23 kcal/mol |
| TAGGGCACGTGCCGGG | -0.2 kcal/mol |
| GAATGCACGTGAGTAT | 0.3 kcal/mol |
| CTTCGCACGTGGTGTG | -0.2 kcal/mol |
| GTGGGCACGTGGCAGG | -0.19 kcal/mol |
| ATATTCACGTGTTGTC | 0.28 kcal/mol |
| GGTCGCACGTGATTAG | 0.08 kcal/mol |

| Sequence | relative binding free energy |
| --- | --- |
| AGATACACGTGGATGG | -0.13 kcal/mol |
| GGATTCACGTGGTGTG | 0.28 kcal/mol |
| GGGCTCACGTGTGTTT | 0.34 kcal/mol |
| AGATGCACGTGCGTTG | 0.03 kcal/mol |
| TAGGGCACGTGGTGTT | -0.19 kcal/mol |
| TGTTGCACGTGCGTAT | -0.07 kcal/mol |
| TAGTTCACGTGCATTG | 0.15 kcal/mol |
| GGAGCCACGTGGTATG | -0.18 kcal/mol |
| AGTTTCACGTGATGAG | 0.23 kcal/mol |
| ATTGCCACGTGGTGTA | -0.32 kcal/mol |
| ATTGTCACGTGATGGT | 0.14 kcal/mol |
| TCGGGCACGTGCGTGG | -0.19 kcal/mol |
| GCTTTCACGTGGTTGA | 0.15 kcal/mol |
| TGAGTCACGTGATTTT | 0.36 kcal/mol |
| GTTGTCACGTGGATTT | 0.16 kcal/mol |
| AGGGTCACGTGTCTGA | 0.04 kcal/mol |
| TGGTGCACGTGTACAA | 0.1 kcal/mol |
| CTTGTCACGTGGGTTA | -0.07 kcal/mol |
| TGTAACACGTGAGGTT | 0.25 kcal/mol |
| AGATGCACGTGGTTAA | -0.29 kcal/mol |
| TGGCGCACGTGAAGTG | 0.12 kcal/mol |
| CGGCACACGTGGGGCG | -0.06 kcal/mol |
| GATGGCACGTGGCAGT | -0.16 kcal/mol |
